Measurements: PubChem BioAssay AID1240 (Sanford-Burnham Center for Chemical Genomics, 2008)
About 800 (1.6%) of roughly 50,000 compounds showed an effect of 50% or more. This is one part of the list.

What follows are molecules tested against Bcl-2-like protein 10 (Homo sapiens) (UniProt Q9HD36) (assay: Phenotype converters, Bcl-B/TR3 peptide binding displacement, primary biochemical FP (AID 1240;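 also: 0% = Bcl-B with tracer peptide and DMSO and 100% = tracer peptide lacking Bcl-B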)). Settings: GST-Bcl-B / FITC-TR3 peptide fluorescence polarization; stronger effect = higher value; compound at 3.75 mg/L.
UniProt Q9HD36, sequence (Q9HD36 whole entry, looked up): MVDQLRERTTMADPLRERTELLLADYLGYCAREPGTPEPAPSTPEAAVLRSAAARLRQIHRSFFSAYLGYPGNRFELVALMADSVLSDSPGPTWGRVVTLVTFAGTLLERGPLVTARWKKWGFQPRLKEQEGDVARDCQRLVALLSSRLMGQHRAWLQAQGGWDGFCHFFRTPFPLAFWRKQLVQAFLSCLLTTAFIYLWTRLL

| SMILES | displacement |
| --- | --- |
| COC(=O)c1ccc(COc2ccc3c(oc(=O)c4ccccc43)c2C)cc1 | 8.2% |
| CN(C)c1nccc(NCc2ccccc2)c1C#N | -4.9% |
| Nc1nnc(SCC(=O)Nc2ccc3nc(SCC(=O)Nc4ccccc4)sc3c2)s1 | -17.5% |
| C=CCN1C(=O)/C(=C\c2cccc(Cl)c2)C(=O)NC1=S | 3.9% |
| CCOC(=O)C(CCCOc1ccccc1F)C(=O)OCC | -3.3% |
| O=C(NCc1ccccc1Cl)C(=O)Nc1cccc(Cl)c1Cl | 0.9% |
| CCOC(=O)c1c(NC(=O)CSc2nc3ccccc3[nH]2)sc2c1CCCC2 | -17.3% |
| Cc1ccc(N(CC(=O)Nc2ccc(Cl)cc2C)S(=O)(=O)c2ccc(F)cc2)cc1 | -13.9% |
| COc1ccccc1C(=O)N[C@H](C)c1ccccc1 | -0.6% |
| O=C(CC1S\C(=N/N=C/C=C/c2ccccc2)NC1=O)Nc1ccc(C(=O)O)cc1 (configuration not stated) | 41.6% |
| COc1cccc(CN2CCN(C(=O)c3ccccc3)CC2)c1OC | -2.8% |
| O=C(c1cnn2c(-c3ccccc3)cc(-c3ccccc3)nc12)N1CCOCC1 | 16.8% |
| CCOc1ccc(NC(=O)c2cccc(F)c2)cc1 | -11.1% |
| O=C1NN(c2ccccc2)C(=O)/C1=C/c1cccc2ccccc12 | 5.1% |
| Cc1cccn2c(=O)c(/C=C3\SC(=S)N(CCc4ccccc4)C3=O)c(NCCCn3ccnc3)nc12 | 10.4% |
| O=C1NN(c2ccccc2)C(=O)/C1=C/c1ccc(OCc2ccccc2F)cc1 | 13.6% |
| CC(C)(C)C1CCc2c(sc(NC(=O)C3CCCO3)c2C(N)=O)C1 (configuration not stated) | -7.5% |
| C=CCn1c(CC)nc2ccccc21 | 7.9% |
| COc1ccc(OC)c(COc2ccc(-c3nc4sc5c(c4c(=O)[nH]3)CCCC5)cc2)c1 | 13.6% |
| Cc1cc(=O)[nH]c(N/N=C/c2ccccc2Cl)n1 | -2.8% |
| O=[N+]([O-])c1ccccc1CNC1CCCCCC1 | 2.1% |
| COc1ccc(C(=O)NC(=S)Nc2ccccc2Cl)cc1 | 4.8% |
| Cc1cc(Br)cc(C)c1NC(=O)c1cc2ccccc2o1 | 10.9% |
| CCCOC(=O)c1ccc(NC(=O)c2cccc([N+](=O)[O-])c2)cc1 | 15.5% |

| SMILES | displacement |
| --- | --- |
| O=C(Nc1ccc(Cl)cc1)O/N=C\c1c[nH]c2ccccc12 | -0.5% |
| O=[N+]([O-])c1ccc(NCCNS(=O)(=O)c2ccc(Cl)cc2)c(Cl)c1 | 2.3% |
| CCOc1ccc(C(=O)NC(C)C2COc3ccccc3O2)cc1 (configuration not stated) | 1.9% |
| CC(C)c1ccc(N2C(=O)CSC23C(=O)Nc2ccccc23)cc1 (configuration not stated) | 2% |
| COc1ccccc1C(=O)Nc1cc(C)cc(C)c1 | 11.4% |
| O=C(Nc1cc(C(F)(F)F)ccc1Cl)c1cccs1 | 7.2% |
| Cc1ccc(S(=O)(=O)N2CCN(c3ccc([N+](=O)[O-])c(NC4CC4)c3)CC2)cc1 | 14.1% |
| CCOC(=O)C(=CNc1cc(C)ccc1O)C(=O)OCC | -1.7% |
| C=CCc1ccc(OCC(O)CN2CC(C)OC(C)C2)c(OC)c1 (configuration not stated) | -10% |
| CCOc1c(Br)cc(/C=C2\C(=O)NC(=O)N(c3cccc(C)c3)C2=O)cc1OC | 12.1% |
| Brc1ccc(-c2nnc(SCCC3OCCCO3)o2)cc1 | 13.5% |
| N#Cc1cccc(NC(=O)Nc2ccc(Cl)cc2)c1 | -5.3% |
| Cc1cc([N+](=O)[O-])cc2c1NC(=O)C2=O | -5.2% |
| CC(=O)c1ccc(NCCC(=O)c2cccs2)cc1 | -17.9% |
| COc1cc(CN2CCN(C3CCCCC3)CC2)cc(OC)c1O | -9.5% |
| O=C(c1ccc2ccccc2n1)N1CCOCC1 | 10.4% |
| Cc1cc2ncn(S(=O)(=O)c3ccc(Cl)c([N+](=O)[O-])c3)c2cc1C | -5.3% |
| CCN1C(=O)C(=O)c2cc(Br)ccc21 | 0.4% |
| C=CCOC(=O)C1=C(C)NC(C)=C(C(=O)OCC=C)C1c1ccc(O)c(OCC)c1 | 10.8% |
| Cc1ccc(N2C(=O)CC(NCc3cccc4ccccc34)C2=O)cc1 (configuration not stated) | 2.8% |
| CN(C)c1ccc(/C=C2\N=C(c3ccc([N+](=O)[O-])cc3)OC2=O)cc1 | -8.6% |
| Cc1ccc(-n2nc3cc(C)c(NC(=O)c4cccc(Cl)c4)cc3n2)cc1 | -4.2% |
| O=C(NNc1nc(-c2ccccc2)c2cc(Br)ccc2n1)c1ccccc1Cl | -19.2% |
| C=CCc1cc(/C=C2\C(=O)NC(=O)N(c3ccc(Cl)cc3)C2=O)cc(OC)c1OCC(=O)OC | -14.3% |

| SMILES | displacement |
| --- | --- |
| CC(=O)c1cccc(NC(=O)C(C)Sc2ccc(Cl)cc2)c1 (configuration not stated) | 3.2% |
| CCOC(=O)c1c(-c2ccccc2)csc1NC(=O)C(C)C | 5.5% |
| COC(=O)c1c(C)oc2cc(Br)c(OC(=O)c3ccc([N+](=O)[O-])cc3)cc12 | 9.3% |
| CN1CCC(=NNC(=O)CN(c2cccc(Cl)c2)S(=O)(=O)c2ccccc2)CC1 | 0.4% |
| O=C(N/N=C\c1cc(Cc2ccccc2Cl)ccc1O)c1cncc(Br)c1 | -9.4% |
| OC(Cc1ccccc1)(c1ccc(F)cc1)C(CN1CCOCC1)c1ccccc1 (configuration not stated) | 2.8% |
| O=C(CC(c1ccccc1)c1ccccc1)Nc1ccc2ccccc2c1 | -7.3% |
| COc1ccc(/C=C2\SC(=S)N(CC(=O)Nc3nccs3)C2=O)cc1OC | 39.3% |
| Fc1ccccc1OCCOCCN1CCCCC1 | -2.6% |
| CCOc1cccc(N2C(=O)/C(=C/c3cc(Br)c(O)c(OCC)c3)C(=O)NC2=S)c1 | 3.1% |
| Cc1nn(-c2ccccc2)c(C)c1/C=N\N1CCN(c2ccccc2)CC1 | -0.3% |
| N#C/C(=C/c1ccc(-c2ccc3c(c2)C(=O)NC3=O)o1)C(N)=O | 140% |
| O=C1NCC(O)=C1C=NCc1ccc(Cl)cc1 | -8.1% |
| COc1ccc(CCn2c(O)c(C3=c4cc(Br)ccc4=NC3=O)sc2=S)cc1OC | -11.3% |
| COc1ccc(CCNC2CC(=O)N(c3ccccc3)C2=O)cc1OC (configuration not stated) | -9.8% |
| COc1cc(/C=N/n2cnnc2)cc(I)c1O | 0.3% |
| O=[N+]([O-])c1cc(S(=O)(=O)Nc2ccc(Cl)cc2)ccc1Cl | 11.1% |
| Cc1cc2oc(=O)cc(C)c2cc1NC(=O)COc1ccccc1 | 9.8% |
| Cc1ccsc1/C=c1\sc2nc3ccccc3n2c1=O | -8.5% |
| CCOc1cc(/C=N/NC(=O)c2cc(-c3ccc(Cl)cc3)n[nH]2)ccc1O | -14.2% |
| CC(CC(=O)Nc1ccccc1)c1ccccc1 (configuration not stated) | 11.4% |
| Cc1ccc(-n2ncnc2-c2ccccc2C)cc1Cl | -8.7% |
| COC(=O)C(NS(=O)(=O)c1ccccc1)C(C)C (configuration not stated) | -12% |
| COc1ccc2nc(NC(=O)Cc3ccccc3)sc2c1 | 3% |
